Measured values published in PubChem BioAssay AID686971 (National Center for Advancing Translational Sciences (NCATS), 2013).
About 7,500 (2.1%) of roughly 360,000 compounds were called active. Inconclusive results, whose numbers are uncertain, are shown with a selection of clear calls. Calls come from the whole dose curve; as a rule, active = well fitted cell-killing curve with a large enough effect; inconclusive = small, poorly fitted or top-dose-only effect, or effect the other way, or another doubt; inactive = no such curve, though single readings can be large or run the other way. No potency is given beside an inconclusive call; the fits are too rough.

Assay: qHTS for induction of synthetic lethality in tumor cells producing 2HG: qHTS for the HT-1080-IDH1KD cell line
Settings: HT-1080 IDH1 knockdown viability, ATP luminescence, 48 h; series mostly up to 46.1 µM
In short: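 Cytotoxicity counter-line: IDH1KD HT-1080, 48 h, CellTiter-Glo. Curves classed by r2, magnitude and activity.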
Potency is the fitted concentration of half-maximal effect; tags give direction and shape of the fitted curve.

| SMILES | Potency |
| --- | --- |
| CC(C)(C)c1ccc(C(=O)Nc2ccc(C=C(C#N)C#N)cc2)cc1 | inconclusive [cytotoxic, single point] |
| Cc1ccc(NC(=O)CSc2ccc(Br)cc2)cc1S(=O)(=O)N1CCOCC1 | inactive |
| C[C@@H](NC(=O)c1coc(=O)c(Br)c1)c1ccccc1 | active: 8.2 µM |
| O=S1(=O)CCOCCCN1Cc1ccccc1 | inactive |
| CC(=O)CCC(=O)N1CCC(n2nccc2NC(=O)c2ccccc2C)CC1 | inactive |
| c1ccc(CN2CCN(c3ncnc4nc[nH]c34)CC2)cc1 | inconclusive [cytotoxic, single point] |
| CCc1ccc2c(c1)C1(NN=C(c3ccc(C)cc3)S1)C(=O)N2 (configuration not stated) | active: 20.6 µM |
| O=C(Nc1ccccc1)Nc1ccc2ccccc2c1 | inactive |
| Nc1[nH]c(C(=O)c2ccccc2)c(-c2ccc([N+](=O)[O-])cc2)c1C(=O)NCCc1c[nH]c2ccccc12 | inconclusive [cytotoxic, single point] |
| Cn1c(=O)c2cc(NC(=S)NC3CCCCC3)ccc2n1C/C=C/c1ccccc1 | inactive |
| O=S(=O)(O)CCS | inactive |
| O=C1c2cccc(OCc3ccc(F)cc3)c2CCN1Cc1ccccc1 | inactive |
| O=C1CCCc2c1[nH]c1ccc(CN3CCCCC3)cc21 | active: 10 µM |
| COc1cc(NC(=O)CSc2nc3cc(C)ccc3cc2C)c(C(=O)O)cc1OC | inactive |
| CCn1c2ccccc2c2cc(/C=N/n3c(-c4cc(C)[nH]n4)n[nH]c3=S)ccc21 | inconclusive [cytotoxic, single point] |
| O=C(COc1cccc(NC(=O)c2ccco2)c1)c1ccccc1 | inconclusive [cytotoxic, partial curve] |
| NC(N)=N/N=C/c1ccc(Br)cc1 | inconclusive [cytotoxic, single point] |
| Cc1cc(OC(=O)c2cccc(Cl)c2)c([N+](=O)[O-])c(=O)[nH]1 | inactive |
| CC(C)COc1ccc(CNC(=S)Nc2ccccc2)cc1Cl | inconclusive [cytotoxic, single point] |
| Clc1ccc(OCCN2CCN(c3ncnc4sccc34)CC2)cc1 | active: 23.1 µM |
| COc1ccc(Cc2c(C3CCCCC3)nc3c(C)cc(Br)cn23)c(C)c1 | inconclusive [cytotoxic, single point] |
| COc1ccc(S(=O)(=O)N2CCC(C(=O)N[C@@H](C)C(=O)NCc3cccnc3)CC2)cc1 | inactive |
| COc1cc(C(=O)Oc2ccccc2/C=N/NC(=O)c2ccc(Cl)cc2)cc(OC)c1OC | inconclusive [cytotoxic, full curve] |
| Cc1cc(=O)n2[nH]c(C(F)(F)F)c(-c3ccccc3)c2n1 | inactive |

| SMILES | Potency |
| --- | --- |
| NC(Cc1ccc(C(F)(F)F)cc1)c1csc(Nc2nncc3ccccc23)n1 (configuration not stated) | inconclusive [cytotoxic, single point] |
| COc1ccc(/C=C/C(=O)C2(O)CCCCC2)cc1 | inconclusive [cytotoxic, single point] |
| COc1cc(NC2CCCCC2O)c2nc(-c3ccc(Cl)cc3)ccc2c1 (configuration not stated) | inconclusive [cytotoxic, single point] |
| CC(C)Nc1nc(NCCOc2ccccc2Cl)c2sc(-c3ccccc3)cc2n1 | inconclusive [cytotoxic, single point] |
| Cc1cccc(N(Cc2ccccc2)C(=O)c2cc(S(=O)(=O)N3CCOCC3)ccc2Cl)c1 | inactive |
| O=c1cc(CCl)[nH]c2nc3ccccc3n12 | inconclusive [cytotoxic, single point] |
| CCC(=O)Nc1nonc1-c1nc2ccccc2n1Cc1cccc2ccccc12 | active: 0.731 µM |
| COc1cccc(C2CC(c3ccccc3Cl)Nc3nc(N)nn32)c1 (configuration not stated) | inactive |
| Cc1cccc(C2CC(c3ccccc3)=NN2c2ccc(S(N)(=O)=O)cc2)c1 (configuration not stated) | inconclusive [cytotoxic, single point] |
| CC(C)CC1c2[nH]c3ccccc3c2CCN1C(=O)CCC(=O)N(C)C (configuration not stated) | inactive |
| Nc1nc(NCCCN2CCOCC2)nc(Nc2cccc(Cl)c2)c1[N+](=O)[O-] | inconclusive [cytotoxic, partial curve] |
| Cc1ccn(CC(=O)N/N=C/c2cc([N+](=O)[O-])ccc2O)n1 | inconclusive [cytotoxic, single point] |
| COc1ccc(-c2[nH]c(-c3cc(OC)c4c(c3)OCO4)nc2-c2ccccc2)cc1 | inconclusive [cytotoxic, single point] |
| Clc1ccc(-c2c[n+](Cc3cccc(Cl)c3)c3n2CCC3)cc1 | inconclusive [cytotoxic, partial curve] |
| COc1cccc(/C=C/C(=O)Nc2ccc(C(=O)Nc3cccc(S(N)(=O)=O)c3)cc2)c1OC | inconclusive [cytotoxic, single point] |
| O=C(COc1ccc2cc(Br)ccc2c1Br)N1CCOCC1 | inconclusive [cytotoxic, single point] |
| O=S(=O)(c1cccc2nsnc12)N1CCNCC1 | inactive |
| O=C(Nc1ccc(N2CCN(C(=O)c3ccco3)CC2)c(Cl)c1)c1cc2ccccc2o1 | active: 14.6 µM |
| C/C(=C/CCC(C)(O)C1CC[C@@]2(C)[C@@H]3CC=C4[C@@H](CC[C@H](O[C@H]5O[C@@H](CO)[C@H](O)[C@@H](O)[C@@H]5O)C4(C)C)[C@]3(C)C(=O)C[C@]12C)CO[C@@H]1O[C@H](CO)[C@@H](O)[C@H](O)[C@H]1O (some centres not stated) | inactive |
| Cc1cccc(C2c3[nH]c4ccccc4c3CCN2Cc2cccn2-c2ncccn2)c1 (configuration not stated) | inconclusive [cytotoxic, single point] |
| COCCN=c1scc(-c2ccc3c(c2)NC(=O)CO3)n1/N=C(\C)c1ccc(O)cc1 | inconclusive [cytotoxic, partial curve] |
| Cc1ccc(C(=O)Nc2cccc(S(=O)(=O)N3CCCCC3)c2)cc1S(=O)(=O)N1CCOCC1 | inactive |
| OCC1(Cc2ccccc2)CCCN(Cc2ccc(-c3ccco3)cc2)C1 (configuration not stated) | inconclusive [cytotoxic, single point] |
